# Reference: ChEMBL document CHEMBL4888484, “Replenishing the malaria drug discovery pipeline: Screening and hit evaluation of the MMV Hit Generation Library 1 (HGL1) against asexual blood stage Plasmodium falciparum ,using a nano luciferase reporter read-out” (2022)
# Screen size: about 150,000 compounds; about 540 (0.36%) showed an effect of 50% or more. Some of the results follow.
# Test system: Plasmodium falciparum
# Assay: Primary screen in NF54 nanoGlo assay, in single point, at 2uM, 72h; a lower Z score goes with more inhibition
# Format: functional, Erythrocyte
# Settings: timepoint 72 hour
SMILES,% Inhibition,Z score
CCC=C(C)C(=O)NCc1c(C)cc(C)[nH]c1=O,-13%,2.36
CC(=O)Nc1ccc(C[n+]2c3n(c4ccccc42)CCC3)cc1,-5%,0.75
O=C(NCCn1cnc2cc(C(=O)N3CCCC3)ccc21)Nc1ccccc1C(F)(F)F,-13%,1.62
O=C1CCCN1C[C@@H](O)CN1CCCC1c1cccs1 (stereo partly drawn),-31%,3.59
CC(=O)NCC(=O)N1CC[C@H](c2cccc(Oc3ccccc3)c2)C1,-18%,1.87
COc1ccccc1OCC(=O)N1CCCC[C@@H]1Cn1cc(C)cn1,-5%,0.92
CCCn1ccnc1[C@@H]1CC(=O)Nc2cc(O)c(OC)cc21,-5%,0.97
CO[C@H]1CN(c2cccc(F)c2)C12CCN(C(=O)CCCc1ccccc1)CC2,-7%,0.94
CCCN(CC(=O)NC(C)C)C[C@H]1CCCCO1,-9%,0.84
Cc1nc(N)n(C(=O)c2cccc3ccccc23)n1,1%,-0.17
CC[C@@]1(C)CN(C(=O)NCc2cncc(C)c2)CCO1,2%,-0.28
C[C@H]1C(=O)N(C)CCN1C(=O)c1cc(Cn2cnc3ccccc32)[nH]n1,-14%,2.61
CCCc1nc(-c2ccccc2)oc1CC(=O)N1CCN(c2ccccc2F)CC1,-1%,0.1
N#Cc1ccc(CN2CCN(C(=O)CN3CCOCC3)CC2)c(F)c1,1%,-0.11
COc1ccc(Cl)cc1NC(=O)Cn1cnc2nc(N3CCOCC3)sc2c1=O,1%,-0.14
COCC1(C(=O)N2CCC3(CC2)[C@H](O)C[C@@H]3O)CCC1,4%,-0.76
Cc1noc(C)c1CO[C@H]1CN(Cc2ccccn2)CC(=O)N(CC(C)C)C1,0%,0.02
CCOC(=O)c1ccc(N2CC(O)C2)nc1,-11%,1.41
COCc1nc(N2CCN(C(=O)NC(C)C)CC2)c2c(C)nn(-c3ccc(C)cc3)c2n1,-4%,0.57
Cc1cn2c(n1)CC[C@H](Nc1nc(C(C)C)no1)C2,-4%,0.38
O=C(CCc1conc1-c1ccccc1)NCc1ccccc1Br,-13%,1.68

SMILES,% Inhibition,Z score
CCOc1ccc2nc(CN(C)[C@@H]3CCCC[C@@H]3O)ccc2c1,-18%,1.9
Cc1cn(C(C)(C)C(=O)N2CCCNC(=O)[C@@H]2C)nc1C(F)(F)F,-7%,1.02
COC1(c2nc(-c3cccc(C)n3)no2)CCCCC1,2%,-0.21
CCOCCOc1nc(-c2ccc(C)cc2)n(-c2ccc(NC(=O)Nc3ccccc3C)cc2)n1,2%,-0.29
CC(C)CC(=O)N1CCc2ccc(OCc3nc(C(=O)N4CCN(C)CC4)co3)cc2[C@@H]1c1ccccc1,-1%,0.06
CC(C)CC(=O)NC[C@@]12CCC=C1N(C)C(=O)CC2,6%,-0.8
Cc1cccc(NC(=O)Nc2ccccc2-c2cc3ccccc3[nH]2)c1C,2%,-0.31
C[C@@H](Cn1cncn1)C(=O)NC1(c2cc(F)cc(F)c2)CC1,-3%,0.32
COc1cccc(NS(=O)(=O)c2cc(C(=O)N3CCCCC3)ccc2NCc2ccccc2Cl)c1,0%,0.05
Cn1cc(Cl)cc1C(=O)N1CCC12CN(C(=O)OC(C)(C)C)C2,-2%,0.3
C=CCNC(=O)NCCCNc1ccccc1,-4%,0.56
c1cnc(-c2noc(-c3ccccc3-c3ncc[nH]3)n2)nc1,-30%,3.24
CC(C)Oc1ccccc1NC(=O)N(C)C1C2CCOC2C1(C)C (stereo not drawn),-8%,1.01
COc1ccc(Br)c(CC(=O)N2CC3CCC2C3)c1 (stereo not drawn),-6%,0.66
CC[C@@H](C(=O)NCCN1CCOCC1)n1c(Cc2ccc(Cl)cc2Cl)nc2ccccc21,13%,-2.48
CC(C)c1cnc(COc2ccc(-n3cncn3)cc2)o1,-6%,0.87
CCN(Cc1cccc(Cl)c1)C[C@H](C)O,-8%,1.41
CCc1cc(N2CCC[C@H](N3CCCC3)C2)n2ncnc2n1,0%,0.01
Cc1cc(C)c(C(=O)c2sc(Nc3ccc4c(c3)OCCO4)nc2N)cc1C,-21%,3.19
COC(CS(=O)(=O)NC1CCCC12OCCO2)c1ccc(F)cc1 (stereo not drawn),3%,-0.66
O=S(=O)(Cc1ccccc1)N1CCCC[C@H]1c1nnc(-c2ccncc2)[nH]1,9%,-1.67

SMILES,% Inhibition,Z score
CCN(C[C@H](C)C#N)C(=O)c1ncncc1Br,3%,-0.5
CCn1nc(C)cc1C(=O)N1CCC(n2cc(C3CC3)nn2)CC1,1%,-0.12
CS(=O)(=O)CCCNc1c(F)cccc1Cl,-1%,0.08
CN(C)CCNC(=O)C1=NOC2(CCN(C(=O)OC(C)(C)C)CC2)C1,-11%,1.94
COc1ccc2oc(-c3ccc(CNC(=O)c4ccccc4)cc3)nc2c1,35%,-1.01
C[C@@H](C(=O)Nc1cnn(-c2ccc(Cl)cc2)c1)N1CCN(C)CC1,-12%,0.98
O=C(Nc1ncccc1-c1ccccc1)[C@@H]1Cc2ccccc21,-2%,0.29
C[C@]12CC[C@@H](O)C[C@@H]1CC[C@@H]1[C@@H]2CC[C@]2(C)C3CC[C@]12O[C@@H]1NC(=O)CC31 (stereo partly drawn),0%,0.02
c1ccc(N2CCN(Cc3cc(CC4(NCc5cccnc5)COC4)no3)CC2)cc1,-4%,0.74
C#C[C@@H]1COCCN1C(=O)c1cc(Cl)c2c(c1)OCCCO2,-13%,1.91
CCOC1CC(N(C)C(=O)c2csc(CN)n2)C1(C)C (stereo not drawn),-3%,0.5
O=C(NCCOc1cccc(Cl)c1)NC[C@H]1CCS(=O)(=O)C1,-18%,1.86
Cc1ccc(OCc2nc(C(=O)NCc3ccccn3)cs2)c(C)c1,-1%,0.08
NC(N)=Nc1nc(-c2ccc(S(=O)(=O)N3CCCCCC3)cc2)cs1,7%,-0.67
COc1cccc(-c2nc3cc(F)ccc3cc2CN[C@H]2CCS(=O)(=O)C2)c1,-9%,1.34
CO[C@H]1CCN(c2cc(N3CCC(C)(O)CC3)ncn2)C1,-7%,0.82
COc1c(CNc2nncs2)c(C)nn1C,9%,-0.83
CCc1nocc1CN(C)C(=O)NC1CC2CC2C1 (stereo not drawn),-2%,0.26
Cc1cccc(C(=O)N(C)CCO)c1C,-4%,0.43
Cc1ccc(NC(=O)CC[C@@H]2CN(CC(C)C)CC[C@@H]2N2CCN(c3ccccc3F)CC2)cc1,-10%,1.22
CO[C@H]1[C@@H]2CC[C@H]1CN(Cc1cc(CN(C)C)cs1)C2,-2%,0.23

SMILES,% Inhibition,Z score
CN(C(=O)c1cnn(Cc2ccccc2)c1)[C@H]1CCS(=O)(=O)C1,-2%,0.22
O=C(Cn1cc(S(=O)(=O)N2CCCCCC2)ccc1=O)Nc1ccc2c(c1)OCCO2,0%,-0.06
NC(=NCCc1cccc(Cl)c1)N1CCOCC1,0%,0.04
O=C(CCN1CC[C@H](NC(=O)c2ccccc2)[C@@H](O)C1)NC1CCCCC1,-1%,0.21
COc1cc(NC(=O)Cn2c(=O)n(-c3ccccc3)c(=O)c3c2cc(C)n3C)cc(OC)c1,-14%,1.33
CN(C(=O)C1CC1c1cc(F)ccc1F)C1CC[S+]([O-])CC1 (stereo not drawn),-6%,0.48
N#Cc1ccc(NCCCC(=O)N2Cc3ccccc3C2)cn1,-47%,5.54
O=C1CN(C(=O)CN2CCC[C@H](CN3CCOCC3)C2)c2ccccc2N1,-5%,0.68
CC(C)(C)C(=O)NCCCn1ccnc1,-8%,1.6
Cc1ccc(OCC(=O)N2CCCC[C@@H]2CCN2CCCC2)cc1C,-15%,1.93
Cc1cc(N2C[C@H](C3CC3)[C@@H](N)C2)nc2cc(F)ccc12,-8%,1.25
Cc1nc(C)c(C)c(N2CCC[C@H](C(=O)Nc3ncccc3C)C2)n1,-22%,1.84
O=C(NCC1CCN([C@H]2CCOC2)CC1)c1ccc2c(c1)OCO2,-7%,1.31
CCCN(Cc1ccc(C)o1)Cc1ccc(C(O)(c2ccc(OC)cc2)c2ccc(OC)cc2)o1,5%,-0.88
COc1ccc(Nc2nc3ccccc3s2)cc1S(=O)(=O)N1CCOCC1,-7%,0.9
c1cncc(-c2cn(C3CCN(C4CCCCCC4)CC3)nn2)c1,-11%,1.6
CN(c1cccc(C(=O)Nc2ccccc2C(N)=O)c1)S(=O)(=O)c1ccccc1,-10%,1.79
CC(C)OC1CCC(NC2CCC3CN(Cc4ccccc4)CC32)CC1 (stereo not drawn),1%,-0.09
Cc1c(Cl)cccc1S(=O)(=O)N1CCC[C@H](Cc2nc(C3CC3)no2)C1,15%,-1.95
C[C@@H](C(=O)N(C)Cc1ccon1)c1ccc(-c2ccccc2)c(F)c1,0%,0.03
O=C(Cc1n[nH]c(=O)c2ccccc12)N1C[C@H]2Cc3cccc(=O)n3[C@@H](C2)C1,-18%,2.35
